From PubChem BioAssay AID686979 (National Center for Advancing Translational Sciences (NCATS), 2013)
The whole screen tested about 420,000 compounds, of which about 50,000 (12%) were called active. Inconclusive results, whose numbers are uncertain, are shown with a selection of clear calls. The call rests on the fitted dose curve; in most records, active means well fitted inhibition curve with a large enough effect; inconclusive means small, poorly fitted or top-dose-only effect; inactive means flat fitted curve, though single readings scatter. No potency is given beside an inconclusive call; the fits are too rough.

Assay: qHTS for Inhibitors of human tyrosyl-DNA phosphodiesterase 1 (TDP1): qHTS in cells in presence of CPT; further: nearly all actives have a fitted effect of over 55% in size
Settings: chicken DT40 Tdp1-/-;hTDP1 cells + 20 nM CPT, ATP luminescence, 48 h; series mostly up to 46.2 µM
In short: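 Chicken DT40 Tdp1-/- cells stably complemented with human TDP1 were seeded at 400 cells/well in medium containing 20 nM camptothecin, exposed to pin-transferred compounds, and grown at 37 °C for at least 48 hr. Viability was read as ATP luminescence.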
Potency means the concentration at half of the fitted maximal effect; tags describe the fitted curve by direction and shape.

Row | SMILES | Potency
1 | O=C(c1ccccc1Br)N1CCC(c2nc3ccccc3o2)CC1 | inconclusive [inhibitor, single point]
2 | C/C(=N\N=C1\NC(=O)C(CC(=O)O)S1)c1ccccn1 (centres undefined) | inactive
3 | Cc1ccc(F)cc1NC(=S)NCCc1ccccc1 | inconclusive [inhibitor, single point]
4 | CCCCn1nnnc1C(c1ccccc1)N1CCN(c2ccc(C)cc2)CC1 (centres undefined) | inconclusive [inhibitor, single point]
5 | Cc1ccc(S(=O)(=O)/C=C/C#N)cc1 | active: 1.3 µM
6 | O=C(NC(c1ccc(-c2ccccc2)cc1)c1cnccn1)C1CCN(Cc2ccc3c(c2)OCO3)CC1 (centres undefined) | active: 5.8 µM
7 | CCOc1ccccc1NC(=O)CN1C(=O)CSC(C)C1=O (centres undefined) | inactive
8 | CCn1c(SCc2nc3ccccc3c(=O)[nH]2)nc2ccccc21 | inconclusive [inhibitor, single point]
9 | COc1ccc(S(=O)(=O)N(Cc2nc(-c3ccc(Cl)cc3)no2)C2CCCCC2)cc1 | active: 20.6 µM
10 | Cc1ccc(S(=O)(=O)NCc2ccc(C(=O)NCCc3cccc(C)c3)cc2)cc1 | inconclusive [inhibitor, partial curve]
11 | CCc1nc2ccc(C(=O)NCCc3ccco3)cc2nc1CC | inconclusive [inhibitor, single point]
12 | CCOC(=O)c1c(-c2ccccc2)csc1NC(=O)CSc1nc(C)cc(C)n1 | inconclusive [inhibitor, single point]
13 | Cc1oc(C)c2c(=O)cc(-c3ccc4c(c3)OCO4)cc(OC(=O)c3cccc(Cl)c3)c12 | inconclusive [inhibitor, single point]
14 | NC(=O)CC(NC(=O)Cc1ccc(Br)cc1)c1ccc(N2CCN(c3ccccn3)CC2)c([N+](=O)[O-])c1 (centres undefined) | inconclusive [inhibitor, partial curve, poor fit]
15 | CS(=O)(=O)c1ccc(-c2sc3ccccc3c2C#CCCO)cc1 | active: 16.4 µM
16 | CN(C)c1ccc(CC(=O)N2CCCC(c3cc(C(=O)Nc4ccc(F)c(Cl)c4)no3)C2)cc1 (centres undefined) | active: 16.4 µM
17 | C=C1C(=O)OC2CC1C(OC(C)=O)CC(C)=CCCC(C)=CCC[C@@]2(C)O (some centres undefined) | active: 2.91 µM
18 | O=C(NCCc1ccc(Cl)cc1Cl)c1cccnc1 | inconclusive [inhibitor, partial curve]
19 | COc1ccc(-c2cc(C(F)(F)F)n3ncc(C(=O)NCC4CCCO4)c3n2)cc1OC (centres undefined) | inconclusive [inhibitor, partial curve]
